Assay results taken from a collection of fitness landscapes (doi:10.1126/science.1257360).
Some of the results follow.

B1: PhoQ; a variant is named by its letters at X, in order, P23837 (parent)
chain: MKKLLRLFFPLSLRVRFLLATAAVVLVLSLAYGMVALIGYSVSFDKTTFRLLRGESNLFYTLAKWENNKLHVELPENIDKQSPTMTLIYDENGQLLWAQRDVPWLMKMIQPDWLKSNGFHEIEADVNDTSLLLSGDHSIQQQLQEVREDDDDAEMTHSVAVNVYPATSRMPKLTIVVVDTIPVELKSSYMVWSWFIYVLSANLLLVIPLLWVAAWWSLRPIEALAKEVRELEEHNRELLNPATTRELTSLVRNLNRLLKSERERYDKYRTTLTDLTHSLKTPLXXLQXXLRSLRSEKMSVSDAEPVMLEQISRISQQIGYYLHRASMRGGTLLSRELHPVAPLLDNLTSALNKVYQRKGVNISLDISPEISFVGEQNDFVEVMGNVLDNACKYCLEFVEISARQTDEHLYIVVEDDGPGIPLSKREVIFDRGQRVDTLRPGQGVGLAVAREITEQYEGKIVAGESMLGGARMEVIFGRQHSAPKDE

Variants of: B1
Experiment: enrichment ratio after two sorts for PhoP signalling (ratio (wild type AVST 3.29)); higher = more functional
Conditions: with PhoP (E. coli)

Variant	enrichment ratio
PRNE	≤ 0.25
WFSY	≤ 0.25
IRHS	≤ 0.25
IAII	≤ 0.25
LDCI	0.333
QSWG	18
DCLM	≤ 0.25
FGGF	≤ 0.25
INTE	≤ 0.25
CSCR	≤ 0.25
EVSI	≤ 0.25
WAAW	≤ 0.25
LLTI	≤ 0.25
PHHW	≤ 0.25
PQRK	≤ 0.25
GRKY	≤ 0.25
RTSN	≤ 0.25
FHYI	≤ 0.25
KNLD	≤ 0.25
TPKI	≤ 0.25
PADQ	≤ 0.25

Variant	enrichment ratio
LMNR	≤ 0.25
PMYN	≤ 0.25
KKKC	≤ 0.25
PVPA	≤ 0.25
MGSV	15.6
WNVF	≤ 0.25
LMML	≤ 0.25
HGVQ	≤ 0.25
YFCY	≤ 0.25
VPDA	≤ 0.25
LALV	8.3
GVQV	≤ 0.25
SSCD	6.3
KSDV	≤ 0.25
NMLH	≤ 0.25
DFQY	≤ 0.25
ESKY	≤ 0.25
MTIR	≤ 0.25
VVTL	0.446
MYKT	≤ 0.25
MDRD	≤ 0.25

Variant	enrichment ratio
IRSV	≤ 0.25
RTTE	≤ 0.25
WDHR	≤ 0.25
GRSS	≤ 0.25
WATT	≤ 0.25
PCIF	≤ 0.25
QVHF	0.315
RICY	≤ 0.25
SSQL	9.73
HHNC	≤ 0.25
WYYF	≤ 0.25
IFQR	≤ 0.25
YIYA	≤ 0.25
MHQL	≤ 0.25
QGMN	≤ 0.25
SIKS	≤ 0.25
EMCM	≤ 0.25
RMYH	≤ 0.25
RHHE	≤ 0.25
KSWV	≤ 0.25
IFPI	≤ 0.25

Variant	enrichment ratio
WQFA	≤ 0.25
HFCF	≤ 0.25
RPMM	≤ 0.25
DNNW	≤ 0.25
FIAM	≤ 0.25
VEYG	≤ 0.25
QVSC	1.05
MYAP	≤ 0.25
FKPH	≤ 0.25
ECSM	≤ 0.25
DHPI	≤ 0.25
NDEC	≤ 0.25
YHFQ	≤ 0.25
GHMP	≤ 0.25
PGWA	≤ 0.25
AGVG	1.3
EAPK	≤ 0.25
ETFY	≤ 0.25
LFFF	≤ 0.25
NSYP	1.33
HMKR	≤ 0.25
